Drawing on the supplement of paper PMC11302662, this text covers isolate count for nine compounds.

Each value is the number of isolates with that result; steps that no isolate showed are left empty. MIC by broth microdilution (Sensititre panel) of ESBL-producing clinical Enterobacterales isolates; higher = less susceptible. No active / inactive call. '<=' and '>=' mark the lowest and highest value of each drug's range; the source prints them as plain numbers.

Common to all, as to test: Isolates counted by MIC; Sensititre broth microdilution panel on ESBL-producing clinical isolates.
(In general: Broth dilution looks for growth in wells or tubes with falling amounts of substance.)

The test system of test [1] is Escherichia coli (193 isolates).
Test [2] relates to Enterobacter cloacae (10 isolates).
In test [3] the test system is Enterobacter hormaechei (113 isolates).
For test [4], the system named is Klebsiella pneumoniae (122 isolates).

On to `NCC[C@H](O)C(=O)N[C@@H]1C[C@H](N)[C@@H](O[C@H]2O[C@H](CN)[C@@H](O)[C@H](O)[C@H]2O)[C@H](O)[C@H]1O[C@H]1O[C@H](CO)[C@@H](O)[C@H](N)[C@H]1O` [amikacin], for which the isolate count is 95 in test [1] (MIC: 2 mg/L); 19 in test [1] (MIC: 4 mg/L); 10 in test [1] (MIC: 8 mg/L); 11 in test [1] (MIC: 16 mg/L); 55 in test [1] (MIC: ≤1 mg/L); 3 in test [1] (MIC: ≥32 mg/L). The isolate count in test [2] (MIC: 2 mg/L) came out at 7; in test [2] (MIC: 4 mg/L), 2; in test [2] (MIC: 8 mg/L), 1; in test [3] (MIC: 2 mg/L), 55; in test [3] (MIC: 4 mg/L) it was 31; in test [3] (MIC: 8 mg/L), 15. Moreover, the isolate count was determined as 12 in test [3] (MIC: ≤1 mg/L); 20 in test [4] (MIC: 2 mg/L); 19 in test [4] (MIC: 4 mg/L); 5 in test [4] (MIC: 8 mg/L); 77 in test [4] (MIC: ≤1 mg/L); 1 in test [4] (MIC: ≥32 mg/L).

`CC(C)(O/N=C(\C(=O)N[C@@H]1C(=O)N2C(C(=O)[O-])=C(C[n+]3ccccc3)CS[C@H]12)c1csc(N)n1)C(=O)O` [ceftazidime]: the isolate count in test [1] (MIC: 1 mg/L) is 17; in test [1] (MIC: 2 mg/L), 19; in test [1] (MIC: 4 mg/L) it was 34; in test [1] (MIC: 8 mg/L) it was 48; in test [1] (MIC: 16 mg/L), 45; in test [1] (MIC: ≤0.5 mg/L) it was 6. Further, the isolate count was 24 in test [1] (MIC: ≥32 mg/L); 6 in test [2] (MIC: 16 mg/L); 4 in test [2] (MIC: ≥32 mg/L); 2 in test [3] (MIC: 4 mg/L); 5 in test [3] (MIC: 8 mg/L); 38 in test [3] (MIC: 16 mg/L). Also, the isolate count stood at 68 in test [3] (MIC: ≥32 mg/L); 2 in test [4] (MIC: 2 mg/L); 4 in test [4] (MIC: 4 mg/L); 31 in test [4] (MIC: 8 mg/L); 45 in test [4] (MIC: 16 mg/L); 40 in test [4] (MIC: ≥32 mg/L).

For `CCC(C)CCCC(=O)N[C@@H](CCN)C(=O)N[C@H](C(=O)N[C@@H](CCN)C(=O)N[C@H]1CCNC(=O)[C@H]([C@@H](C)O)NC(=O)[C@H](CCN)NC(=O)[C@H](CCN)NC(=O)[C@H](CC(C)C)NC(=O)[C@@H](CC(C)C)NC(=O)[C@H](CCN)NC1=O)[C@@H](C)O` (some centres not stated) [colistin], the isolate count in test [1] (MIC: 0.5 mg/L) came to 161; in test [1] (MIC: 1 mg/L) it was 3; in test [1] (MIC: 8 mg/L), 1; in test [1] (MIC: ≤0.25 mg/L) it was 28; in test [2] (MIC: 0.5 mg/L), 1; in test [2] (MIC: 1 mg/L), 1. Also, the isolate count in test [2] (MIC: 8 mg/L) turned out to be 2; in test [2] (MIC: ≥16 mg/L) it was 6; in test [3] (MIC: 0.5 mg/L), 89; in test [3] (MIC: 1 mg/L), 20; in test [3] (MIC: ≤0.25 mg/L), 4; in test [4] (MIC: 0.5 mg/L), 84. For the same compound, the isolate count was 36 in test [4] (MIC: 1 mg/L), 1 in test [4] (MIC: 2 mg/L) and 1 in test [4] (MIC: 4 mg/L).

As to `C[C@@H](O)[C@H]1C(=O)N2C(C(=O)O)=C(S[C@@H]3CN[C@H](C(=O)Nc4cccc(C(=O)O)c4)C3)[C@H](C)[C@H]12` [ertapenem], the isolate count in test [1] (MIC: 0.12 mg/L) amounted to 6; in test [1] (MIC: 0.25 mg/L), 1; in test [1] (MIC: 0.5 mg/L), 2; in test [1] (MIC: ≤0.06 mg/L) it was 183; in test [1] (MIC: ≥1 mg/L) it was 1; in test [2] (MIC: 0.12 mg/L), 2. Also, the isolate count stood at 1 in test [2] (MIC: 0.5 mg/L); 7 in test [2] (MIC: ≤0.06 mg/L); 15 in test [3] (MIC: 0.12 mg/L); 14 in test [3] (MIC: 0.25 mg/L); 7 in test [3] (MIC: 0.5 mg/L); 72 in test [3] (MIC: ≤0.06 mg/L). Besides, the isolate count in test [3] (MIC: ≥1 mg/L) worked out at 5; in test [4] (MIC: 0.12 mg/L) it was 16; in test [4] (MIC: 0.25 mg/L), 5; in test [4] (MIC: 0.5 mg/L) it was 6; in test [4] (MIC: ≤0.06 mg/L), 92; in test [4] (MIC: ≥1 mg/L), 3.

`CNC(C)C1CCC(N)C(OC2C(N)CC(N)C(OC3OCC(C)(O)C(NC)C3O)C2O)O1` (configuration not stated) [gentamicin]: the isolate count in test [1] (MIC: 2 mg/L) worked out at 6; in test [1] (MIC: 4 mg/L) it was 1; in test [1] (MIC: ≤1 mg/L) it was 132; in test [1] (MIC: ≥8 mg/L), 54; in test [2] (MIC: ≥8 mg/L) it was 10; in test [3] (MIC: 4 mg/L) it was 2. For the same compound, the isolate count was 11 in test [3] (MIC: ≤1 mg/L); 100 in test [3] (MIC: ≥8 mg/L); 1 in test [4] (MIC: 2 mg/L); 5 in test [4] (MIC: 4 mg/L); 75 in test [4] (MIC: ≤1 mg/L); 41 in test [4] (MIC: ≥8 mg/L).

Turning to `C[C@@H](O)[C@H]1C(=O)N2C(C(=O)O)=C(SCCNC=N)C[C@H]12` [imipenem], the isolate count in test [1] (MIC: 1 mg/L) was 3; in test [1] (MIC: ≤0.5 mg/L) it was 190; in test [2] (MIC: ≤0.5 mg/L), 10; in test [3] (MIC: 1 mg/L), 7; in test [3] (MIC: 2 mg/L), 2; in test [3] (MIC: ≤0.5 mg/L) it was 104. Besides, the isolate count in test [4] (MIC: 1 mg/L) came out at 4; in test [4] (MIC: 2 mg/L), 1; in test [4] (MIC: 4 mg/L), 1; in test [4] (MIC: ≤0.5 mg/L) it was 115; in test [4] (MIC: ≥16 mg/L), 1.

With `C[C@@H](O)[C@H]1C(=O)N2C(C(=O)O)=C(S[C@@H]3CN[C@H](C(=O)N(C)C)C3)[C@H](C)[C@H]12` [meropenem], the isolate count is 1 in test [1] (MIC: 1 mg/L); 192 in test [1] (MIC: ≤0.12 mg/L); 10 in test [2] (MIC: ≤0.12 mg/L); 2 in test [3] (MIC: 0.25 mg/L); 2 in test [3] (MIC: 0.5 mg/L); 109 in test [3] (MIC: ≤0.12 mg/L). The isolate count amounted to 1 in test [4] (MIC: 0.25 mg/L), 1 in test [4] (MIC: 2 mg/L), 118 in test [4] (MIC: ≤0.12 mg/L) and 2 in test [4] (MIC: ≥16 mg/L).

As for `CO[C@@]1(NC(=O)C(C(=O)O)c2ccsc2)C(=O)N2[C@@H](C(=O)O)C(C)(C)S[C@@H]21` (some centres not stated) [temocillin], the isolate count in test [1] (MIC: 8 mg/L) was found to be 87; in test [1] (MIC: 16 mg/L), 53; in test [1] (MIC: ≤4 mg/L), 41; in test [1] (MIC: ≥32 mg/L) it was 12; in test [2] (MIC: 8 mg/L) it was 5; in test [2] (MIC: 16 mg/L), 2. Further, the isolate count in test [2] (MIC: ≤4 mg/L) is 2; in test [2] (MIC: ≥32 mg/L), 1; in test [3] (MIC: 8 mg/L), 50; in test [3] (MIC: 16 mg/L) it was 23; in test [3] (MIC: ≤4 mg/L) it was 31; in test [3] (MIC: ≥32 mg/L), 9. The isolate count in test [4] (MIC: 8 mg/L) turned out to be 50; in test [4] (MIC: 16 mg/L) it was 23; in test [4] (MIC: ≤4 mg/L), 43; in test [4] (MIC: ≥32 mg/L) it was 6.

As to `CN(C)c1cc(NC(=O)CNC(C)(C)C)c(O)c2c1C[C@H]1C[C@H]3[C@H](N(C)C)C(O)=C(C(N)=O)C(=O)[C@@]3(O)C(O)=C1C2=O` [tigecycline], the isolate count in test [1] (MIC: 0.5 mg/L) was found to be 8; in test [1] (MIC: ≤0.25 mg/L) it was 185; in test [2] (MIC: 0.5 mg/L) it was 4; in test [2] (MIC: ≤0.25 mg/L), 6; in test [3] (MIC: 0.5 mg/L), 74; in test [3] (MIC: 1 mg/L) it was 6. In addition, the isolate count in test [3] (MIC: 2 mg/L) turned out to be 11; in test [3] (MIC: ≤0.25 mg/L), 21; in test [3] (MIC: ≥4 mg/L), 1; in test [4] (MIC: 0.5 mg/L) it was 55; in test [4] (MIC: 1 mg/L) it was 29; in test [4] (MIC: 2 mg/L), 9. For the same compound, the values for the isolate count in test [4] (MIC: ≤0.25 mg/L) and in test [4] (MIC: ≥4 mg/L) were 25 and 4, respectively.
